# Measured values reported in the supplement of paper PMC8728848.
# This is one part of the list.
# B1: Sebin2 (Coprinopsis cinerea), A8PE78 (protein)
# chain: MTTPFYAYCHNVQDDNTWRLGLVFANRSTADEWWRAISEATSSIPITKSITRVTPQYYTHDIRVWNMYNFFVDGNIKSISDKFRGRLFITLEYDRSGRGVSVFPPLHIVDHVSGNWYYIRSKTAPHLFWFYDETRNAIYASKEKRTRFKVSIRNPSPQTPKDAIMINSDDVVIHIKESLYVGVDSYLGHIIPTRAYRTFKFGELEGGAIAGIEVAENAEERCSSTFDGASLYFVGPDSSSPGEPWELV
# Key:
# Test in all cases: glycan array binding signal (z-score within array); higher = stronger binding
# Settings in all cases: glycan notation: IUPAC condensed, linker removed
# [1] = biological target: Gal(b1-4)GlcNAc(b1-3)Gal(b1-4)GlcNAc(b1-2)Man(a1-3)[Gal(b1-4)GlcNAc(b1-3)Gal(b1-4)GlcNAc(b1-2)Man(a1-6)]Man(b1-4)GlcNAc(b1-4)[Fuc(a1-6)]GlcNAc
# Outline: (§1)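 Glycan array data came from 3228 arrays in the Consortium for Functional Glycomics database, and only arrays with an available protein sequence were kept. Glycan names were put into IUPAC-condensed notation, and columns mapping to the same glycan were averaged. The binding signal is a within-array Z-score, averaged across arrays of one protein sequence run at different concentrations or buffers and across linkers. A negative Z-score can be read as non-binding.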
# [2] = biological target: Gal(b1-4)GlcNAc(b1-3)Gal(b1-4)GlcNAc(b1-2)[Gal(b1-4)GlcNAc(b1-3)Gal(b1-4)GlcNAc(b1-6)]Man(a1-6)[Gal(b1-4)GlcNAc(b1-3)Gal(b1-4)GlcNAc(b1-2)Man(a1-3)]Man(b1-4)GlcNAc(b1-4)GlcNAc
# Outline: as §1
# [3] = biological target: Gal(b1-4)GlcNAc(b1-3)Gal(b1-4)GlcNAc(b1-2)[Gal(b1-4)GlcNAc(b1-3)Gal(b1-4)GlcNAc(b1-6)]Man(a1-6)[Gal(b1-4)GlcNAc(b1-3)Gal(b1-4)GlcNAc(b1-2)Man(a1-3)]Man(b1-4)GlcNAc(b1-4)[Fuc(a1-6)]GlcNAc
# Outline: as §1
# [4] = biological target: Gal(b1-4)GlcNAc(b1-3)Gal(b1-4)GlcNAc(b1-3)Gal(b1-4)GlcNAc
# Outline: as §1
# [5] = biological target: Gal(b1-4)GlcNAc(b1-3)Gal(b1-4)GlcNAc(b1-3)Gal(b1-4)GlcNAc(b1-2)Man(a1-3)[Gal(b1-4)GlcNAc(b1-3)Gal(b1-4)GlcNAc(b1-3)Gal(b1-4)GlcNAc(b1-2)Man(a1-6)]Man(b1-4)GlcNAc(b1-4)GlcNAc
# Outline: as §1
# [6] = biological target: Gal(b1-4)GlcNAc(b1-3)Gal(b1-4)GlcNAc(b1-3)Gal(b1-4)GlcNAc(b1-2)Man(a1-3)[Gal(b1-4)GlcNAc(b1-3)Gal(b1-4)GlcNAc(b1-3)Gal(b1-4)GlcNAc(b1-2)Man(a1-6)]Man(b1-4)GlcNAc(b1-4)[Fuc(a1-6)]GlcNAc
# Outline: as §1
# [7] = biological target: Gal(b1-4)GlcNAc(b1-3)Gal(b1-4)GlcNAc(b1-3)Gal(b1-4)GlcNAc(b1-2)[Gal(b1-4)GlcNAc(b1-3)Gal(b1-4)GlcNAc(b1-3)Gal(b1-4)GlcNAc(b1-6)]Man(a1-6)[Gal(b1-4)GlcNAc(b1-3)Gal(b1-4)GlcNAc(b1-3)Gal(b1-4)GlcNAc(b1-2)Man(a1-3)]Man(b1-4)GlcNAc(b1-4)[Fuc(a1-6)]GlcNAc
# Outline: as §1
# [8] = biological target: Gal(b1-4)GlcNAc(b1-3)Gal(b1-4)GlcNAc(b1-3)Gal(b1-4)GlcNAc(b1-3)Gal(b1-4)GlcNAc(b1-2)Man(a1-3)[Gal(b1-4)GlcNAc(b1-3)Gal(b1-4)GlcNAc(b1-3)Gal(b1-4)GlcNAc(b1-3)Gal(b1-4)GlcNAc(b1-2)Man(a1-6)]Man(b1-4)GlcNAc(b1-4)GlcNAc
# Outline: as §1
# [9] = biological target: Gal(b1-4)GlcNAc(b1-3)Gal(b1-4)GlcNAc(b1-3)Gal(b1-4)GlcNAc(b1-3)Gal(b1-4)GlcNAc(b1-2)Man(a1-3)[Gal(b1-4)GlcNAc(b1-3)Gal(b1-4)GlcNAc(b1-3)Gal(b1-4)GlcNAc(b1-3)Gal(b1-4)GlcNAc(b1-2)Man(a1-6)]Man(b1-4)GlcNAc(b1-4)[Fuc(a1-6)]GlcNAc
# Outline: as §1
# [10] = biological target: Gal(b1-4)GlcNAc(b1-3)Gal(b1-4)GlcNAc(b1-3)Gal(b1-4)GlcNAc(b1-3)Gal(b1-4)GlcNAc(b1-2)[Gal(b1-4)GlcNAc(b1-3)Gal(b1-4)GlcNAc(b1-3)Gal(b1-4)GlcNAc(b1-3)Gal(b1-4)GlcNAc(b1-6)]Man(a1-6)[Gal(b1-4)GlcNAc(b1-3)Gal(b1-4)GlcNAc(b1-3)Gal(b1-4)GlcNAc(b1-3)Gal(b1-4)GlcNAc(b1-2)Man(a1-3)]Man(b1-4)GlcNAc(b1-4)[Fuc(a1-6)]GlcNAc
# Outline: as §1
# [11] = biological target: Gal(b1-4)GlcNAc(b1-3)Gal(b1-4)GlcNAc(b1-3)Gal(b1-4)GlcNAc(b1-3)Gal(b1-4)GlcNAc(b1-3)Gal(b1-4)GlcNAc(b1-2)Man(a1-3)[Gal(b1-4)GlcNAc(b1-3)Gal(b1-4)GlcNAc(b1-3)Gal(b1-4)GlcNAc(b1-3)Gal(b1-4)GlcNAc(b1-3)Gal(b1-4)GlcNAc(b1-2)Man(a1-6)]Man(b1-4)GlcNAc(b1-4)GlcNAc
# Outline: as §1
# [12] = biological target: Gal(b1-4)GlcNAc(b1-3)Gal(b1-4)GlcNAc(b1-3)Gal(b1-4)GlcNAc(b1-3)Gal(b1-4)GlcNAc(b1-3)Gal(b1-4)GlcNAc(b1-2)Man(a1-3)[Gal(b1-4)GlcNAc(b1-3)Gal(b1-4)GlcNAc(b1-3)Gal(b1-4)GlcNAc(b1-3)Gal(b1-4)GlcNAc(b1-3)Gal(b1-4)GlcNAc(b1-2)Man(a1-6)]Man(b1-4)GlcNAc(b1-4)[Fuc(a1-6)]GlcNAc
# Outline: as §1
# [13] = biological target: Gal(b1-4)GlcNAc(b1-3)Gal(b1-4)GlcNAc(b1-3)Gal(b1-4)GlcNAc(b1-3)Gal(b1-4)GlcNAc(b1-3)Gal(b1-4)GlcNAc(b1-2)[Gal(b1-4)GlcNAc(b1-3)Gal(b1-4)GlcNAc(b1-3)Gal(b1-4)GlcNAc(b1-3)Gal(b1-4)GlcNAc(b1-3)Gal(b1-4)GlcNAc(b1-6)]Man(a1-6)[Gal(b1-4)GlcNAc(b1-3)Gal(b1-4)GlcNAc(b1-3)Gal(b1-4)GlcNAc(b1-3)Gal(b1-4)GlcNAc(b1-3)Gal(b1-4)GlcNAc(b1-2)Man(a1-3)]Man(b1-4)GlcNAc(b1-4)[Fuc(a1-6)]GlcNAc
# Outline: as §1
# [14] = biological target: Gal(b1-4)GlcNAc(b1-3)Gal(b1-4)GlcNAc(b1-3)Gal(b1-4)GlcNAc(b1-3)Gal(b1-4)GlcNAc(b1-3)Gal(b1-4)GlcNAc(b1-3)Gal(b1-4)GlcNAc(b1-2)Man(a1-3)[Gal(b1-4)GlcNAc(b1-3)Gal(b1-4)GlcNAc(b1-3)Gal(b1-4)GlcNAc(b1-3)Gal(b1-4)GlcNAc(b1-3)Gal(b1-4)GlcNAc(b1-3)Gal(b1-4)GlcNAc(b1-2)Man(a1-6)]Man(b1-4)GlcNAc(b1-4)GlcNAc
# Outline: as §1
# [15] = biological target: Gal(b1-4)GlcNAc(b1-3)Gal(b1-4)GlcNAc(b1-3)GalNAc
# Outline: as §1
# [16] = biological target: Gal(b1-4)GlcNAc(b1-3)Gal(b1-4)GlcNAc(b1-3)[Gal(b1-4)GlcNAc(b1-3)Gal(b1-4)GlcNAc(b1-6)]GalNAc
# Outline: as §1
# [17] = biological target: Gal(b1-4)GlcNAc(b1-3)Gal(b1-4)GlcNAc(b1-6)[Gal(b1-3)]GalNAc
# Outline: as §1
# [18] = biological target: Gal(b1-4)GlcNAc(b1-3)Gal(b1-4)[Fuc(a1-3)]GlcNAc(b1-3)Gal(b1-4)[Fuc(a1-3)]GlcNAc
# Outline: as §1
# [19] = biological target: Gal(b1-4)GlcNAc(b1-3)GalNAc
# Outline: as §1
# [20] = biological target: Gal(b1-4)GlcNAc(b1-3)[Fuc(a1-3)GlcNAc(b1-6)]Gal(b1-4)Glc
# Outline: as §1
# [21] = biological target: Gal(b1-4)GlcNAc(b1-3)[Gal(b1-4)GlcNAc(b1-6)]Gal(b1-4)GlcNAc
# Outline: as §1
# [22] = biological target: Gal(b1-4)GlcNAc(b1-3)[GlcNAc(b1-6)]Gal(b1-4)GlcNAc
# Outline: as §1
# [23] = biological target: Gal(b1-4)GlcNAc(b1-6)Gal(b1-4)GlcNAc
# Outline: as §1
# [24] = biological target: Gal(b1-4)GlcNAc(b1-6)GalNAc
# Outline: as §1
# [25] = biological target: Gal(b1-4)GlcNAc(b1-6)[Gal(b1-3)]GalNAc
# Outline: as §1
# [26] = biological target: Gal(b1-4)GlcNAc(b1-6)[Gal(b1-4)GlcNAc(b1-3)]GalNAc
# Outline: as §1
# [27] = biological target: Gal(b1-4)GlcNAc6P
# Outline: as §1
# [28] = biological target: Gal(b1-6)Gal
# Outline: as §1
# [29] = biological target: Gal3S(b1-3)GalNAc
# Outline: as §1
# [30] = biological target: Gal3S(b1-3)GlcNAc
# Outline: as §1
# [31] = biological target: Gal3S(b1-3)[Fuc(a1-4)]GlcNAc
# Outline: as §1
# [32] = biological target: Gal3S(b1-4)Glc
# Outline: as §1
# [33] = biological target: Gal3S(b1-4)Glc6S
# Outline: as §1
# [34] = biological target: Gal3S(b1-4)GlcNAc
# Outline: as §1
# [35] = biological target: Gal3S(b1-4)[Fuc(a1-3)]Glc6S
# Outline: as §1
# [36] = biological target: Gal3S(b1-4)[Fuc(a1-3)]GlcNAc
# Outline: as §1
# [37] = biological target: Gal3S(b1-4)[Fuc(a1-3)]GlcNAc6S
# Outline: as §1
binder,measurement,setting,value
B1,glycan array binding signal (z-score),[1],0.032
same,glycan array binding signal (z-score),[2],0.304
same,glycan array binding signal (z-score),[3],-0.085
same,glycan array binding signal (z-score),[4],-0.165
same,glycan array binding signal (z-score),[5],-0.131
same,glycan array binding signal (z-score),[6],-0.122
same,glycan array binding signal (z-score),[7],0.573
same,glycan array binding signal (z-score),[8],-0.118
same,glycan array binding signal (z-score),[9],-0.071
same,glycan array binding signal (z-score),[10],-0.1
same,glycan array binding signal (z-score),[11],-0.589
same,glycan array binding signal (z-score),[12],-0.14
same,glycan array binding signal (z-score),[13],0.421
same,glycan array binding signal (z-score),[14],0.143
same,glycan array binding signal (z-score),[15],0.049
same,glycan array binding signal (z-score),[16],0.177
same,glycan array binding signal (z-score),[17],0.106
same,glycan array binding signal (z-score),[18],-0.148
same,glycan array binding signal (z-score),[19],-0.264
same,glycan array binding signal (z-score),[20],-0.328
same,glycan array binding signal (z-score),[21],-0.371
same,glycan array binding signal (z-score),[22],-0.795
same,glycan array binding signal (z-score),[23],-0.109
same,glycan array binding signal (z-score),[24],0.266
same,glycan array binding signal (z-score),[25],-0.329
same,glycan array binding signal (z-score),[26],-0.289
same,glycan array binding signal (z-score),[27],0.129
same,glycan array binding signal (z-score),[28],0.35
same,glycan array binding signal (z-score),[29],-0.205
same,glycan array binding signal (z-score),[30],-0.368
same,glycan array binding signal (z-score),[31],-0.168
same,glycan array binding signal (z-score),[32],0.2
same,glycan array binding signal (z-score),[33],0.515
same,glycan array binding signal (z-score),[34],-0.453
same,glycan array binding signal (z-score),[35],0.126
same,glycan array binding signal (z-score),[36],-0.023
same,glycan array binding signal (z-score),[37],0.191
